Measured values from publication PMC8251769, “Phosphonate as a Stable Zinc‐Binding Group for “Pathoblocker” Inhibitors of Clostridial Collagenase H (ColH)” (Chemmedchem, 2021).

Target: ColQ1-CU (collagenase unit of ColQ1) (Bacillus cereus, UniProt B9J3S4)
Experiment: biochemical

Which IC50 does the source give for `CC(=O)c1ccc(NC(=O)CP(=O)(O)O)cc1` [compound 26, Disodium (2-((4-acetylphenyl)amino)-2-oxoethyl)phosphonate] here?
Its IC50 is 183 ± 7 µM.
